Assay results published in the supplement of paper PMC10338343.
± gives the standard deviation. This is a selection; strong and weak results do not stand in their true shares.

Each sequence was assayed on MIWI (PIWIL1) piRISC loaded with piRNA #1 (30 nt) (assay: pre-steady-state target cleavage rate (min^-1); MIWI and MILI are mouse PIWI proteins and EfPiwi is from a freshwater sponge; tags in brackets are library labels; higher = faster piRNA-guided slicing of the target). Conditions: guide: piRNA #1 5'p-UGAGGUAGUAGGUUGUAUAGUAUCCAGAGG; auxiliary factor: 500 nM mouse GTSF1.
In short: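 The pre-steady-state cleavage rate came from a burst-and-steady-state fit to pooled data from three Cleave-'n-Seq trials, in which uncleaved targets were sequenced and normalised to depth and to weakly complementary targets. Each reaction held 0.1 nM transcribed, DNA-blocked target RNA library and 1 nM active affinity-purified piRISC carrying one synthetic guide, with or without 500 nM GTSF1 partner protein, in HEPES–potassium acetate buffer at 33 °C for 0–8 or 0–960 min. k3 was capped at 0.0001 min^-1.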

Sequence | pre-steady-state target cleavage rate
GGAGACCUAUGAUUAGAUCCUACUACCUCA | < 0.0001
GGACUGGAUAGAUUACAACCUACUACCUCA | 0.0509 ± 0.0099
GCUCUGGAUUCUAUUCAACCUACUACCUCA | 1.02 ± 0.077
GGAGACCAUACUAUACAACCUACUACGACA | 0.803 ± 0.063
GGAGACCUAACUAUACAACCUACAACCUGA | 0.2 ± 0.07
GGACUGGAUACUAUACAACCAUGUACCUCA | 0.00488 ± 0.0037
GGAGAGGAUACUAUUCAACCUAGUACCUCA | 0.0846 ± 0.02
GGAGACCUAUCAAUACAACCUACUAGCUCA | 0.00375 ± 0.0034
GGACUCGAUACUAAACAACCUACUACCUCA | 1.62 ± 0.12
GGAGACCUAAGUAUACAAGCUACUACCUCA | 0.0616 ± 0.012
GGAGACCUUACUAUACAACCUACUACCACA | 1.42 ± 0.1
GGAGACCAUACUAUACAACAUACUACCUCA | 0.939 ± 0.06
GCUCUGGAUACUAUACAACCAUACUACCUCA | 0.00752 ± 0.0037
GGAGACGAUACUAGUACAACCUACUACCUCA | 1.28 ± 0.085
GGAGACCAUACAAUACAACCAACUACCUCA | 0.0235 ± 0.0072
GGACUGGAUACUAUACAACCAACUUCCUCA | 0.00677 ± 0.0026
GGUCUGGAUACAAAACAACCUACUACCUCA | 0.885 ± 0.11
GGAGACCUUACUAUAUAACCUACUACCUCA | 1.29 ± 0.098
GGAGACGAUACUAUACAACCUUGUACCUCA | 0.083 ± 0.013
GCUGUGGAUACUAUACAACCUACUACGUCA | 0.534 ± 0.064

Sequence | pre-steady-state target cleavage rate
GGAGACCUAUGAUUACAACCUCCUACCUCA | 0.00268 ± 0.0026
GCACUGGAAACUAUACAACCUACUACCUCA | 1.82 ± 0.089
GGACUGGAUUCUAUACAACCUACUACGUCA | 0.717 ± 0.071
GGAGACCUAUCUAUACAAGCUACUACCUGA | 0.27 ± 0.027
GGAGUGGAUACUAUACAACCUACUACCUUA | 0.77 ± 0.054
GGAGAGGAUACUAUACAACCUACUACUCUCA | 0.704 ± 0.045
GGAGACCUAACUAGACAACCUACUACCUCA | 0.56 ± 0.06
GGAGACGAUACUAUACAACCUUCAACCUCA | 0.259 ± 0.02
CCUCUGGAUACUAUACAACCUACUACCUGA | 0.831 ± 0.11
GGAGACCUAUGAUAUGUACACUACUACCUCA | 0.00293 ± 0.0026
GGAGACCUAUCUAUAGAUCCUACUACCUCA | 0.0433 ± 0.0069
GGAGACCAUACUAUACAUCCUACUACGUCA | 0.534 ± 0.048
GGAGACCUAUGAUAUGUACCUUCUUCCUCA | < 0.0001
GGAGACCUAUGAUAUGUUCCUCACUACCUCA | 0.00272 ± 0.0015
GGAGAGGAUACUAUAAACCUACUACCUCA | 0.835 ± 0.085
GGAGACCUUACUAUACAACCUACAACCACA | 0.265 ± 0.026
GGACUGGAUACUAUACAACCUACCUACCUCA | 1.06 ± 0.094
GGAGAGGAUACUAUAGCAACCUACUACCUCA | 0.61 ± 0.07
GGAGACCUAACUAAACAACCUUCUACCUCA | 0.0156 ± 0.0057
